# Source: PubChem BioAssay AID1347073 (National Center for Advancing Translational Sciences (NCATS), 2019)
# Hit rate of the full screen: of about 45,000 compounds, about 200 (0.44%) were called active. Not shown: some 7% with an inconclusive outcome. The call rests on the fitted dose curve; in most records, active means well fitted activation curve with a large enough effect; inconclusive means small, poorly fitted or top-dose-only effect; inactive means no such curve, though single readings can be large or run the other way. Some of the results follow.
# Assay: qHTS of TDP-43 Inhibitors: NCGC Sytravon Library Screen; further: 0% is about no effect; nearly all actives have a fitted effect of over 55% in size
# Settings: yeast TDP-43 toxicity rescue, BacTiter-Glo growth, 24 h; series mostly up to 46.1 µM; growth rescue (activation): at the top concentration
# How it was run: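 TDP-43-expressing yeast, pregrown in raffinose, seeded at OD600 0.02 in galactose medium with compound for 24 hr at 30 deg C. Growth read by BacTiter-Glo luminescence, so rescue of toxicity appears as activation.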
row,SMILES,growth rescue (activation)
1,NS(=O)(=O)c1ccc(CCNc2ccn3nc(-c4cccc(C(F)(F)F)c4)cc3n2)cc1,inactive: 11.7%
2,Cc1ccc(C(C(=O)NC2CCCCC2)N(Cc2ccccc2)C(=O)Cc2c[nH]c3ccccc23)o1 (centres undefined),inactive: 0.196%
3,COc1ccccc1/C=C(/C(=O)OCC(=O)Nc1cc(C)ccc1C)c1ccccc1,inactive: 9.08%
4,Cc1ccc(C)c(NC(=S)N2CCN(CCO)CC2)c1,inactive: 6.94%
5,Nn1c(Cc2cccc3ccccc23)n[nH]c1=S,inactive: 1.79%
6,O=C(O)c1ccccc1OCC1CCCO1 (centres undefined),inactive: -1.13%
7,CC(=O)N/C(=N\c1nc(C)cc(C)n1)Nc1ccccc1Cl,inactive: -14.4%
8,Cc1cc(C)c(/C=N/NC(=O)c2nnn(-c3nonc3N)c2CN2CCC(C)CC2)c(C)c1,inactive: -4.13%
9,CCCOc1ccc(C(=O)NNC(=S)NC(=O)c2cccs2)cc1,inactive: -5.11%
10,COc1cc(/C=C(\NC(=O)c2ccccc2)C(=O)N2CC3CC(C2)c2cccc(=O)n2C3)cc(OC)c1OC (centres undefined),inactive: 2.44%
11,Cc1ccc(NC(=O)C=NOCC(=O)Nc2cc(C)cc(C)c2)cc1,inactive: 22%
12,O=C(CN1CCN(c2ccc(F)cc2)CC1)N(C1CCCC1)C1CCS(=O)(=O)C1 (centres undefined),inactive: 20.1%
13,C=CCN(c1ccccc1OC)S(=O)(=O)c1cccc(C(=O)NCc2cccs2)c1,inactive: 8.12%
14,Cc1ccc(/C=C/c2ccc3cccc(O)c3n2)s1,inactive: 11.7%
15,N#Cc1c(N)n(-c2ccc(O)cc2)c2nc3ccccc3nc12,inactive: -1.86%
16,CCCCCCCCCCOC(=O)Cn1c(COc2ccc(C)cc2)[n+](C)c2ccccc21,inactive: -93.1%
17,Cc1ccc2[nH]c(=O)c(CN(CC3CCCO3)C(=O)c3cccs3)cc2c1 (centres undefined),inactive: -12.6%
18,O=S(=O)(NCc1cccs1)NCc1ccccc1F,inactive: 2.96%
19,Cc1ccc(F)c(S(=O)(=O)NC(=O)C2(C)CCN2C(=O)Cc2ccc(C(C)(C)C)cc2)c1 (centres undefined),inactive: 3.47%
20,Oc1cccc(-c2ccc3nccn3c2)c1,inactive: -18.8%
21,CS/C(=N\S(=O)(=O)c1cccs1)Nc1ccc(F)c(Cl)c1,inactive: 5.27%
22,Cc1ccc(S(=O)(=O)N2CCC(NC(=O)c3cccnc3)CC2)cc1Cl,inactive: 13.4%
23,COC(=O)c1ccccc1NC(=O)c1ccc2c(=O)n3c(nc2c1)CCCCC3,inactive: 0.41%

row,SMILES,growth rescue (activation)
1,Cc1ccc(NC(=O)CSC2=NN3CCCC(=O)N=C3S2)cc1Cl,inactive: -7.58%
2,CCc1nc(SCC(=O)c2cccc([N+](=O)[O-])c2)n[nH]1,inactive: 18.4%
3,C1CC(CN2CCOCC2)CN(Cc2nc(CC3CC3)no2)C1 (centres undefined),inactive: 12.6%
4,Cc1cc(NC(=O)c2ccc(Br)c([N+](=O)[O-])c2)no1,inactive: 10.9%
5,COc1cccc(CC2(CO)CCN(CC3=CC[C@H]4C[C@@H]3C4(C)C)CC2)c1,inactive: 11.1%
6,Cn1c(=O)n(C)c2cc([N+](=O)[O-])c(N3CCN(C(=O)C(C)(C)C)CC3)cc21,inactive: -3.45%
7,Oc1ccc2c(c1)C1CCCC1(N1CCOCC1)O2 (centres undefined),inactive: 19.8%
8,O=C(CSc1nnc(CCc2ccccc2)n1-c1ccc(Cl)cc1)NCc1ccccc1,inactive: 30.7%
9,CC(=O)CSc1nc2c(c(=O)[nH]c(=O)n2C)n1Cc1ccccc1Cl,inactive: -0.235%
10,Cc1cccc(C)c1OCc1cc(C(=O)N(Cc2nccn2C)C(C)C)no1,inactive: 1.08%
11,Cc1cc(NS(=O)(=O)c2ccc(NS(=O)(=O)c3ccc(CC(C)C)cc3)cc2)nc(C)n1,inactive: -0.824%
12,O=C(NC(=S)N1CCCC(C(F)(F)F)C1)c1ccc(F)cc1 (centres undefined),inactive: 5.15%
13,N#Cc1ccccc1NC(=O)COc1ccc2c(c1)OCO2,inactive: 14.9%
14,CCCS(=O)(=O)N1CCCC(C(=O)NCc2ccc(C)cc2)C1 (centres undefined),inactive: 29.4%
15,CN(Cc1ccccc1)C(=O)c1ccc(NC(=O)c2ccccc2)cc1,inactive: 20.7%
16,N#CCC(=O)N/N=C/c1ccc(Cl)cc1,inactive: -22.7%
17,COc1ccc2sc(/C=C/c3ccccc3O)[n+](C)c2c1,inactive: -5.92%
18,CN(CC(=O)Nc1ccccc1Br)C(=O)c1cccc([N+](=O)[O-])c1,inactive: 19.8%
19,CC(NC(=O)c1ccc(F)cc1)c1ccc2c(c1)CCCC2 (centres undefined),inactive: 12.5%
20,Cc1cc(NC(=O)/C=C/c2ccco2)ccc1NC(=O)c1ccccc1,inactive: -6.1%
21,Cc1ccccc1Nc1nc(N)nc(CSc2ccccc2)n1,inactive: 41.5%
22,CCc1ccc(C2=NNC(=Nc3cccc(S(=O)(=O)N(C)C)c3)SC2)cc1,inactive: 5.9%
23,CN(CCO)C1=NS(=O)(=O)c2cc([N+](=O)[O-])ccc21,inactive: 7.48%

row,SMILES,growth rescue (activation)
1,COc1ccc(OCCN2CCC(C(=O)NC(C)c3cccc4ccccc34)CC2)cc1 (centres undefined),inactive: 5.6%
2,CS(=O)(=O)N(Cc1ccc(Cl)cc1)c1ccc(C(=O)NCc2ccccn2)cc1,inactive: 27%
3,CC(C)(C)NC(=O)NC(=O)COC(=O)c1cc[n+]([O-])cc1,inactive: 10.3%
4,COc1cc(SC)ccc1C(=O)Nc1ccc2c(c1)CCC2,inactive: 8.57%
5,Cc1cc2c(SCC(=O)NC3CCCCC3)ncnc2s1,inactive: 12.4%
6,CCNc1ccc(C(=O)OCC)cc1NC(=O)c1cccc(S(=O)(=O)N(C)c2ccccc2)c1,inactive: 14.2%
7,Cc1ccc(S(=O)(=O)c2nc(-c3ccccc3)oc2SCC(=O)NCC2CCCO2)cc1 (centres undefined),inactive: 0.287%
8,O=C(Cn1c(=O)oc2ccccc21)Nc1ccc(Br)cc1,inactive: 9.87%
9,Cc1cccc(N(CC(=O)NC(C)(C)C)C(=O)CS(=O)CC(=O)Nc2ccc(F)cc2)c1 (centres undefined),inactive: 13.7%
10,Cc1cc(NC(=O)CSc2nc3c(cc2C#N)CCCCC3)no1,inactive: 0.786%
11,CC(C)(C)NC(=O)C(=O)NNC(=O)c1ccccc1,inactive: 29.7%
12,Cc1nc(Nc2ccccc2)c2oc3ccc(Cl)cc3c2n1,inactive: -0.738%
13,Cc1cc2c(SCC(=O)Nc3ccccc3O)ncnc2s1,inactive: 10.5%
14,COc1cc(CC(=O)N2CCN(C(=O)C3CCCO3)CC2)cc(OC)c1OC (centres undefined),inactive: 0.31%
15,Cc1[nH]n(-c2ccccc2)c(=O)c1C=Nc1ccc(S(N)(=O)=O)cc1,inactive: 6.39%
16,Cc1ccnc2nc(C(=O)Nc3nc(-c4ccccn4)cs3)nn12,inactive: 7.55%
17,O=S(=O)(Nc1ccc(N2CCCCC2)cc1)c1ccc(F)c(F)c1,inactive: 21.6%
18,CC(Sc1nnc(-c2ccncc2)n1C)C(=O)Nc1nccs1 (centres undefined),inactive: -4.52%
19,CCOC(=O)c1oc2c(c1C)-c1nn(Cc3c(F)cccc3Cl)cc1CC2,inactive: 10.9%
20,CC(C)N1CCN(Cc2ccoc2)CC1CCO (centres undefined),inactive: -0.455%
21,CC(C)CCNC(=O)Nc1ccc2c(c1)N(Cc1ccccc1)C(=O)c1ccccc1S2,inactive: 17.6%
22,C=CCNC(=O)C(=O)N/N=C/c1ccco1,inactive: 2.94%
23,CC(=O)N(CCc1ccccc1C)Cc1cc2cc3c(cc2[nH]c1=O)OCO3,inactive: 5.51%
